# Experimental data published in PubChem BioAssay AID686978 (National Center for Advancing Translational Sciences (NCATS), 2013).
# Screen size: about 420,000 compounds; about 64,000 (15%) were called active. This list was built around the results that the source calls inconclusive (neither active nor inactive); the mix of calls is not that of the screen. Calls come from the whole dose curve; as a rule, active = well fitted inhibition curve with a large enough effect; inconclusive = small, poorly fitted or top-dose-only effect; inactive = flat fitted curve, though single readings scatter. No potency is given beside an inconclusive call; the fits are too rough.
# Test: qHTS for Inhibitors of human tyrosyl-DNA phosphodiesterase 1 (TDP1): qHTS in cells in absence of CPT; note: nearly all actives have a fitted effect of over 55% in size
# Conditions: DT40 Tdp1-/- hTDP1 cells, no CPT, ATP luminescence, 48 h; activity change, negative = growth inhibition: at 46.2 µM (top of the series) unless noted
# Outline: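 Camptothecin absent (DMSO only). Human TDP1-complemented DT40 knockout cells, 400 cells/well, 37 °C for minimum 48 hr; ATP measured via CellTiter-Glo, 30 min dark incubation, luminescence.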
# % is set by controls: 0 for no effect and ±100 for the full control effect; potency is the fitted concentration of half-maximal effect; tags give direction and shape of the fitted curve.
SMILES,Potency,"activity change, negative = growth inhibition"
CCC(C)NC(=O)c1cc2cc(S(=O)(=O)N3CCCCC3)ccc2n1C (configuration not stated),"inconclusive [inhibitor, single point]",
O=C1c2ccccc2C(=O)N1CCCCN(C(=O)c1cc([N+](=O)[O-])cc([N+](=O)[O-])c1)c1ccc(Cl)cc1,"inconclusive [inhibitor, single point]",
Cc1ccc(NC(=O)CSc2ccccc2)cc1S(=O)(=O)N1CCOCC1,"inconclusive [inhibitor, single point]",
COc1ccc2c(ccn2S(=O)(=O)c2ccccc2)c1,"inconclusive [inhibitor, single point]",
O=C(NCC(c1ccc2c(c1)OCO2)N1CCOCC1)c1ccccc1 (configuration not stated),"inconclusive [inhibitor, single point]",
O=C(N/N=C/c1cc(Cl)cc([N+](=O)[O-])c1O)NC12CC3CC(CC(C3)C1)C2,"inconclusive [inhibitor, single point]",
Cc1ccc(C(=O)NC(C)c2ccc(-n3ccnc3)cc2)o1 (configuration not stated),inactive,
Cc1ccc(NC(=S)N=Nc2c(O)n(C)c3ccc(S(=O)(=O)N4CCOCC4)cc23)cc1C,active: 3.66 µM,
OC12CCCCC1C(c1ccc3c(c1)OCO3)N(Cc1cccc(F)c1)CC2 (configuration not stated),"inconclusive [inhibitor, single point]",
Cc1nn(C(C)(C)C)c(NC(=O)c2ccccc2)c1C#N,"inconclusive [inhibitor, partial curve]",
COc1cccc(CNC(=O)COC(=O)CNC(=O)c2ccc(-c3ccccc3)cc2)c1,inactive,
Cn1c(SCC(=O)N2CCCC2)nnc1-c1cccs1,inactive,
CNC(=O)CC1C(=O)N(c2ccc(F)cc2)C(=S)N1NC(=O)c1ccc(Cl)cc1 (configuration not stated),inactive,
O=C(NCCCN1CCOCC1)c1cc(-c2ccc(Cl)c(Cl)c2)on1,active: 16.4 µM,
O=C(Nc1ccccc1Cl)C1CCCN(S(=O)(=O)c2cccc3cccnc23)C1 (configuration not stated),,inconclusive: -47.5% [inhibitor]
COc1ccc(OC)c2[nH]c(=O)c(CCNC(=O)c3ccc(S(=O)(=O)N(C)C)cc3)cc12,inactive,
COc1ccccc1NC(=O)c1cc2cc(Br)ccc2cc1O,active: 3.66 µM,
Cc1nc2nc(SCc3ccccc3)nn2c(C)c1C,"inconclusive [inhibitor, single point]",
Cc1nc(N2CCN(S(=O)(=O)c3ccccc3)CC2)c2c3c(sc2n1)CC(C)CC3 (configuration not stated),"inconclusive [inhibitor, partial curve]",
Cn1c(SCC(=O)N2c3ccccc3Sc3ccccc32)nc2ccccc21,"inconclusive [inhibitor, single point]",
Cc1cc(C)cc(OCC(=O)Nc2cccc(S(=O)(=O)NC3=NCCC3)c2)c1,"inconclusive [inhibitor, partial curve]",
CC12CNCC(C)(CN(C(c3ccccc3)c3ccccc3)C1)C2,active: 13 µM,
CNC(=O)/C(=C\c1ccc([N+](=O)[O-])cc1)NC(C)=O,inactive,
Cc1[nH]c2ccccc2c1N=Nc1cccc(C(=O)O)c1,"inconclusive [inhibitor, single point]",

SMILES,Potency,"activity change, negative = growth inhibition"
O=C(NCCc1ccc(Cl)cc1)C1CC(=O)N(C2CCCC2)C1 (configuration not stated),inactive,
CC(C)(C)c1ccc(S(=O)(=O)N2CCC(Oc3ccc(-n4cnnn4)cc3)CC2)cc1,active: 10.3 µM,
COc1cc(Cn2c(=O)oc3ccc(C)cc32)ccc1OCCC(C)C,"inconclusive [inhibitor, single point]",
CCCC(=O)Nc1cc2c(cc1C(=O)c1ccccc1)OCCO2,"inconclusive [inhibitor, single point]",
O=C(COC(=O)c1ccc(Cl)c(Cl)c1)Nc1cccnc1Cl,"inconclusive [inhibitor, full curve]",
Cc1ccc(C(=O)NC(=C(Cl)Cl)S(=O)(=O)c2ccc(C)cc2)cc1,"inconclusive [inhibitor, single point]",
Cc1ccc2nc(C)cc(Nc3ccc4c(c3)OCCO4)c2c1,active: 12.6 µM,
CCOC(=O)C1CCC(CN(Cc2ccccc2C)S(=O)(=O)c2ccc([N+](=O)[O-])cc2)CC1 (configuration not stated),"inconclusive [inhibitor, single point]",
COc1cccc(C(c2nnnn2Cc2ccc(F)cc2)N2CCC(C(N)=O)CC2)c1OC (configuration not stated),"inconclusive [inhibitor, partial curve]",
S=C(NC1CCCCC1)N1CCc2[nH]c3ccccc3c2C1,inactive,
Cc1ccc(CNS(=O)(=O)c2ccc(N3CCCCS3(=O)=O)cc2)cc1,active: 16.4 µM,
CC(C)C[C@H](NC(=O)c1[nH]cnc1C(=O)N[C@H](C)c1ccccc1)C(=O)OC(C)(C)C,active: 18.4 µM,
C[C@@H]1C[C@H]2[C@@H]3CCC4=CC(=O)C=C[C@]4(C)[C@@]3(Cl)[C@@H](O)C[C@]2(C)[C@@]1(OC(=O)c1ccco1)C(=O)CCl,active: 11.6 µM,
CCN1CCN(c2ncc3c(n2)CC(c2cc(OC)c(OC)c(OC)c2)CC3=O)CC1 (configuration not stated),active: 3.26 µM,
Cc1cccc(NC(=O)CCNS(=O)(=O)c2cc(Br)cnc2N)c1C,inactive,
COCCNC(=O)C1(C)CCCN(C(=O)c2ccccc2)C1 (configuration not stated),inactive,
CC(C)(C)n1nc2c(c1NC(=O)COc1ccc3ccccc3c1)CS(=O)(=O)C2,"inconclusive [inhibitor, single point]",
COc1ccc(-n2c(=O)c(-c3cc(F)cc(F)c3)nc3cnc(N4CCNCC4)nc32)cc1,active: 20.6 µM,
CCOc1cc(N2CCOCC2)c(OCC)cc1NC(=O)CN1CCN(Cc2ccc3c(c2)OCO3)CC1,"inconclusive [inhibitor, single point]",
Cc1ccc(C(=O)C(C(=O)/C=C/c2ccccc2)=C2SCCCS2)cc1,active: 4.61 µM,
CN1CCCN(C(c2ccccc2)c2ccc(Cl)cc2)CC1 (configuration not stated),active: 5.96 µM,
Cc1nc(N/N=C/c2ccc(O)cc2)c2cnn(-c3ccccc3)c2n1,active: 23.1 µM,
CC(C)(C)NC(=O)CSc1nccn1Cc1ccccc1,inactive,
COC(=O)[C@@]12C[C@@H](CC(=O)N3CCN(C(=O)C4CC4)CC3)C(=O)N(Cc3ccccc3)C1=CCC(C)(C)C2,"inconclusive [inhibitor, single point]",

SMILES,Potency,"activity change, negative = growth inhibition"
N#CC1(NC(=O)CSc2nnc(-c3ccccc3F)n2N)CCCCC1,inactive,
COc1ccc(OC)c(C2c3c(-c4ccc(Br)cc4)n[nH]c3C(=O)N2c2ccc(Cl)cc2)c1 (configuration not stated),"inconclusive [inhibitor, single point]",
Nc1ncnc2c(C3OC(CO)C(O)C3O)scc12 (configuration not stated),active: 0.0164 µM,
O=C1CN(C(=O)CN2CCN(S(=O)(=O)c3ccccc3F)CC2)c2ccccc2N1,,inconclusive: -32% [inhibitor]
C=CCn1c(SCc2c(C)noc2C)nc2sc3c(c2c1=O)CCC(C)C3 (configuration not stated),active: 16.4 µM,
COc1cccc(C(C)(O)c2nc(-c3ccoc3)cs2)c1 (configuration not stated),"inconclusive [inhibitor, single point]",
CCOC(=O)c1c(Nc2cccc(C(=O)OC)c2)nnc(-c2ccccc2)c1-c1ccccc1,"inconclusive [inhibitor, partial curve, poor fit]",
O=C(Cc1ccccc1)N1CCC(c2nc(-c3ccc(F)cc3)no2)CC1,"inconclusive [inhibitor, single point]",
Cc1cccc(N2CCN(S(=O)(=O)c3ccc4c(c3)n(C)c(=O)c(=O)n4C)CC2C)c1 (configuration not stated),inactive,
CCn1cc(CCC(=O)NC(C)c2ccccc2)c2ccccc21 (configuration not stated),inactive,
CCOC(=O)C1=CCC(c2ccccc2Cl)N(S(=O)(=O)c2ccc(C)cc2)C1 (configuration not stated),"inconclusive [inhibitor, single point]",
COc1ccc(/C=C/C(=O)OCC(=O)Nc2ccc(C)cc2)cc1S(=O)(=O)N1CCOCC1,inactive,
Nc1ncc(-c2ccc(-c3ccccc3)cc2F)cc1-c1ccccc1F,"inconclusive [inhibitor, single point]",
CCCCNC(=O)C1(C)CCN1C(=O)c1cccc2c1OCCO2 (configuration not stated),inactive,
OCc1ccccc1OCCCN1CCC(Cc2ccccc2)CC1,"inconclusive [inhibitor, partial curve, poor fit]",
COc1cccc(C(=O)C2CCCN(Cc3c(C)n(C)n(-c4ccccc4)c3=O)C2)c1 (configuration not stated),inactive,
CCOc1ccc(S(=O)(=O)NCC(c2ccco2)S(=O)(=O)c2ccc(C)cc2)cc1 (configuration not stated),"inconclusive [inhibitor, single point]",
c1nc(SSc2ncnc3nc[nH]c23)c2[nH]cnc2n1,active: 7.31 µM,
Cc1ccc(-n2ncc(Br)c(Br)c2=O)cc1,active: 3.66 µM,
COc1ccc(Nc2cc(C(=O)NCCCN(C)Cc3ccccc3)c3ccccc3n2)c(OC)c1,active: 13 µM,
N#CCCSC(=S)C1CCCC1=N (configuration not stated),,inconclusive: -33.6% [inhibitor]
CCOC(=O)CSC1=Nc2ccccc2C2=NC(CC(=O)NCc3ccc4c(c3)OCO4)C(=O)N12 (configuration not stated),"inconclusive [inhibitor, single point]",
COc1ccc([N+](=O)[O-])cc1NC(=O)C(C)OC(=O)/C=C/c1ccco1 (configuration not stated),"inconclusive [inhibitor, partial curve]",
Cc1ccc(S(=O)(=O)N2CCN(C(=O)N(C)C)CC2)cc1C,"inconclusive [inhibitor, single point]",
